Structures are written as SMILES. Counter-ions that a name gives are not always drawn. Whole data set: some 1,900 compounds, median “cell viability of compound + 1 nM pemigatinib relative to pemigatinib-only (DMSO) wells” near 0.95, cut for the lowest 2% near 0.22. The list shows a part of the results.

For this assay, the system named is PDC-DUC18828. The assay can be described thus: cell viability of compound + 1 nM pemigatinib relative to pemigatinib-only (DMSO) wells (fraction); PDC-DUC18828 is a patient-derived cholangiocarcinoma cell line; higher = less growth inhibition. To be noted: first compound 1 µM; pemigatinib concentration 1 nM; 72 h. How it is done:
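Selleck Bioactive library screen in the patient-derived FGFR2 fusion-positive ICC cell line PDC-DUC18828 (500 cells/well). Each compound was tested at 1 uM with 1 nM pemigatinib, in triplicate, for 72 h. Viability was read by CellTiter-Glo and normalised to plate DMSO controls. Value is the paper's averaged normalised viability.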
In the case of `COc1nc(C)nc(Cl)c1NC1=NCCN1` [Moxonidine] + CCN1C(=O)N(c2c(F)c(OC)cc(OC)c2F)Cc2cnc3[nH]c(CN4CCOCC4)cc3c21 [pemigatinib], the cell viability came out at 1.02. Consider `O=C(Nc1cc(C(F)(F)F)ccc1N1CCCCC1)c1ccncc1` + CCN1C(=O)N(c2c(F)c(OC)cc(OC)c2F)Cc2cnc3[nH]c(CN4CCOCC4)cc3c21 [pemigatinib], for which the cell viability stood at 1.01.

For `COc1ccc2[nH]cc(CCNC(C)=O)c2c1` [Melatonin] + CCN1C(=O)N(c2c(F)c(OC)cc(OC)c2F)Cc2cnc3[nH]c(CN4CCOCC4)cc3c21 [pemigatinib], the cell viability is 1.

For `O=C([O-])c1ccccc1O.[Na+]` [Sodium salicylate] + CCN1C(=O)N(c2c(F)c(OC)cc(OC)c2F)Cc2cnc3[nH]c(CN4CCOCC4)cc3c21 [pemigatinib], the cell viability stood at 0.963. The figure for `Cc1ccc(C(=O)c2cc(O)c(O)c([N+](=O)[O-])c2)cc1` [Tolcapone] + CCN1C(=O)N(c2c(F)c(OC)cc(OC)c2F)Cc2cnc3[nH]c(CN4CCOCC4)cc3c21 [pemigatinib] is 0.967; for `O=C(N/N=C/c1ccc(O)c(O)c1)c1cc2ccccc2cc1O` [Dynasore] + CCN1C(=O)N(c2c(F)c(OC)cc(OC)c2F)Cc2cnc3[nH]c(CN4CCOCC4)cc3c21 [pemigatinib] it is 0.955.

As for `C=CC[C@@H]1/C=C(\C)C[C@H](C)C[C@H](OC)[C@H]2O[C@@](O)(C(=O)C(=O)N3CCCC[C@H]3C(=O)O[C@H](/C(C)=C/[C@@H]3CC[C@@H](O)[C@H](OC)C3)[C@H](C)[C@@H](O)CC1=O)[C@H](C)C[C@@H]2OC` [Tacrolimus (FK506)] + CCN1C(=O)N(c2c(F)c(OC)cc(OC)c2F)Cc2cnc3[nH]c(CN4CCOCC4)cc3c21 [pemigatinib], the cell viability was found to be 0.893. In the case of `O=C(O)CCNc1cc(N2CCc3ccccc3CC2)nc(-c2ccccn2)n1` + CCN1C(=O)N(c2c(F)c(OC)cc(OC)c2F)Cc2cnc3[nH]c(CN4CCOCC4)cc3c21 [pemigatinib] it was 0.931.

`COc1ccc(COc2ccc(Cc3cnc(N)nc3N)cc2OC)cc1` + CCN1C(=O)N(c2c(F)c(OC)cc(OC)c2F)Cc2cnc3[nH]c(CN4CCOCC4)cc3c21 [pemigatinib]: the cell viability was 0.965. In the case of `Cc1cc([N+](=O)[O-])ccc1NS(=O)(=O)c1cc(Cl)ccc1Cl` + CCN1C(=O)N(c2c(F)c(OC)cc(OC)c2F)Cc2cnc3[nH]c(CN4CCOCC4)cc3c21 [pemigatinib] it was 0.912; in that of `CC(=O)O/N=C1\C(=O)N(Cc2cc(Cl)ccc2Cl)c2ccc(Cl)cc21` + CCN1C(=O)N(c2c(F)c(OC)cc(OC)c2F)Cc2cnc3[nH]c(CN4CCOCC4)cc3c21 [pemigatinib], 0.938; in that of `O=C(Cc1cccc(OC(F)(F)F)c1)Nc1ccc(CCCCc2nnc(NC(=O)Cc3ccccn3)s2)nn1` + CCN1C(=O)N(c2c(F)c(OC)cc(OC)c2F)Cc2cnc3[nH]c(CN4CCOCC4)cc3c21 [pemigatinib], 0.833. The figure for `Cc1ncc([N+](=O)[O-])n1CCO` [Metronidazole] + CCN1C(=O)N(c2c(F)c(OC)cc(OC)c2F)Cc2cnc3[nH]c(CN4CCOCC4)cc3c21 [pemigatinib] is 1.04; for `CCN(CC)CC#CCOC(=O)C(O)(c1ccccc1)C1CCCCC1` (configuration not stated) [Oxybutynin] + CCN1C(=O)N(c2c(F)c(OC)cc(OC)c2F)Cc2cnc3[nH]c(CN4CCOCC4)cc3c21 [pemigatinib] it is 0.993; for `CCN(CC)CC#CCOC(=O)C(O)(c1ccccc1)C1CCCCC1` (configuration not stated) [Oxybutynin chloride] + CCN1C(=O)N(c2c(F)c(OC)cc(OC)c2F)Cc2cnc3[nH]c(CN4CCOCC4)cc3c21 [pemigatinib] it is 0.875. `CCN(Cc1ccncc1)C(=O)C(CO)c1ccccc1` (configuration not stated) [Tropicamide] + CCN1C(=O)N(c2c(F)c(OC)cc(OC)c2F)Cc2cnc3[nH]c(CN4CCOCC4)cc3c21 [pemigatinib]: the cell viability was determined as 0.957. The figure for `CO[C@@H]1[C@@H](OC(N)=O)[C@@H](O)[C@H](Oc2ccc3c(O)c(NC(=O)c4ccc(O)c(CC=C(C)C)c4)c(=O)oc3c2C)OC1(C)C` [Novobiocin Sodium] + CCN1C(=O)N(c2c(F)c(OC)cc(OC)c2F)Cc2cnc3[nH]c(CN4CCOCC4)cc3c21 [pemigatinib] is 0.992; for `CCN1CCN(C(=O)N[C@@H](C(=O)N[C@@H]2C(=O)N3[C@@H]2SC(C)(C)[C@@H]3C(=O)O)c2ccccc2)C(=O)C1=O` [Piperacillin Sodium] + CCN1C(=O)N(c2c(F)c(OC)cc(OC)c2F)Cc2cnc3[nH]c(CN4CCOCC4)cc3c21 [pemigatinib] it is 0.943. As to `NC(=O)c1cnc2[nH]ccc2c1N[C@@H]1[C@@H]2CC3C[C@H]1C[C@@](O)(C3)C2` + CCN1C(=O)N(c2c(F)c(OC)cc(OC)c2F)Cc2cnc3[nH]c(CN4CCOCC4)cc3c21 [pemigatinib], the cell viability was 0.926. In the case of `CN1CCCC(n2nc(Cc3ccc(Cl)cc3)c3ccccc3c2=O)CC1` (configuration not stated) [Azelastine HCl] + CCN1C(=O)N(c2c(F)c(OC)cc(OC)c2F)Cc2cnc3[nH]c(CN4CCOCC4)cc3c21 [pemigatinib] it was 0.98; in that of `CCCC(=O)Nc1ncnc2c1ncn2[C@@H]1O[C@@H]2COP(=O)(O)O[C@H]2[C@H]1OC(=O)CCC` [Dibutyryl-cAMP (Bucladesine)] + CCN1C(=O)N(c2c(F)c(OC)cc(OC)c2F)Cc2cnc3[nH]c(CN4CCOCC4)cc3c21 [pemigatinib], 0.931; in that of `CN(C)CCC[C@@]1(c2ccc(F)cc2)OCc2cc(C#N)ccc21` [Escitalopram Oxalate] + CCN1C(=O)N(c2c(F)c(OC)cc(OC)c2F)Cc2cnc3[nH]c(CN4CCOCC4)cc3c21 [pemigatinib], 0.913. With `CC1=CC(=O)NS(=O)(=O)O1` [Acesulfame Potassium] + CCN1C(=O)N(c2c(F)c(OC)cc(OC)c2F)Cc2cnc3[nH]c(CN4CCOCC4)cc3c21 [pemigatinib], the cell viability is 0.924. Regarding `NC(=O)N/N=C/c1ccc([N+](=O)[O-])o1` [Nitrofural] + CCN1C(=O)N(c2c(F)c(OC)cc(OC)c2F)Cc2cnc3[nH]c(CN4CCOCC4)cc3c21 [pemigatinib], the cell viability is 0.978. Regarding `O=C(O[C@H]1CN2CCC1CC2)N1CCc2ccccc2[C@@H]1c1ccccc1` [Solifenacin succinate] + CCN1C(=O)N(c2c(F)c(OC)cc(OC)c2F)Cc2cnc3[nH]c(CN4CCOCC4)cc3c21 [pemigatinib], the cell viability is 0.927. For the compound `O=S(=O)(c1ccccc1)c1cnc2c(N3CCNCC3)cccc2c1` + CCN1C(=O)N(c2c(F)c(OC)cc(OC)c2F)Cc2cnc3[nH]c(CN4CCOCC4)cc3c21 [pemigatinib], the cell viability came out at 0.937.

Take `CC(C)C[C@H](NC(=O)[C@H](CCc1ccccc1)NC(=O)CN1CCOCC1)C(=O)N[C@@H](Cc1ccccc1)C(=O)N[C@@H](CC(C)C)C(=O)[C@@]1(C)CO1` [Carfilzomib (PR-171)] + CCN1C(=O)N(c2c(F)c(OC)cc(OC)c2F)Cc2cnc3[nH]c(CN4CCOCC4)cc3c21 [pemigatinib]: the cell viability was 0.0221. For the compound `CC(=O)OCOC(=O)CN(CC(=O)OCOC(C)=O)c1ccccc1OCCOc1ccccc1N(CC(=O)OCOC(C)=O)CC(=O)OCOC(C)=O` + CCN1C(=O)N(c2c(F)c(OC)cc(OC)c2F)Cc2cnc3[nH]c(CN4CCOCC4)cc3c21 [pemigatinib], the cell viability was 0.921. Take `CC(C)(C#N)c1ccc(N2C(=O)OCc3cnc4ccc(-c5cnc6ccccc6c5)cc4c32)cc1` + CCN1C(=O)N(c2c(F)c(OC)cc(OC)c2F)Cc2cnc3[nH]c(CN4CCOCC4)cc3c21 [pemigatinib]: the cell viability came out at 0.95. With `CC(=O)Oc1cccc2c1C(=O)c1c(OC(C)=O)cc(C(=O)O)cc1C2=O` [Diacerein] + CCN1C(=O)N(c2c(F)c(OC)cc(OC)c2F)Cc2cnc3[nH]c(CN4CCOCC4)cc3c21 [pemigatinib], the cell viability was found to be 0.976. In the case of `CCN(CC)Cc1ccc2cc(COC(=O)Nc3ccc(C(=O)NO)cc3)ccc2c1` [Givinostat (ITF2357)] + CCN1C(=O)N(c2c(F)c(OC)cc(OC)c2F)Cc2cnc3[nH]c(CN4CCOCC4)cc3c21 [pemigatinib] it was 0.422; in that of `N=C(N)NC(=N)N1CCOCC1` [Moroxydine HCl] + CCN1C(=O)N(c2c(F)c(OC)cc(OC)c2F)Cc2cnc3[nH]c(CN4CCOCC4)cc3c21 [pemigatinib], 0.941. Regarding `OC[C@H]1O[C@@H](Oc2ccc(O)cc2)[C@H](O)[C@@H](O)[C@@H]1O` [Arbutin] + CCN1C(=O)N(c2c(F)c(OC)cc(OC)c2F)Cc2cnc3[nH]c(CN4CCOCC4)cc3c21 [pemigatinib], the cell viability was determined as 0.995. For the compound `O=C(c1ccc(C(=O)N2CCC(N3CCCC3)CC2)c(Nc2ccccc2)c1)N1CCC(N2CCCC2)CC1` + CCN1C(=O)N(c2c(F)c(OC)cc(OC)c2F)Cc2cnc3[nH]c(CN4CCOCC4)cc3c21 [pemigatinib], the cell viability is 0.954.

For `COc1ccc(NS(=O)(=O)c2ccc(N)cc2)nn1` [Sulfamethoxypyridazine] + CCN1C(=O)N(c2c(F)c(OC)cc(OC)c2F)Cc2cnc3[nH]c(CN4CCOCC4)cc3c21 [pemigatinib], the cell viability was 0.988.

`Nc1ccc(C(=O)NCC(=O)O)cc1` [4-Aminohippuric Acid] + CCN1C(=O)N(c2c(F)c(OC)cc(OC)c2F)Cc2cnc3[nH]c(CN4CCOCC4)cc3c21 [pemigatinib]: the cell viability worked out at 0.914.

For `CCCC(=O)O[C@]1(C(=O)COC(C)=O)CC[C@H]2[C@@H]3C[C@H](F)C4=CC(=O)C=C[C@]4(C)[C@@]3(F)[C@@H](O)C[C@@]21C` [Difluprednate] + CCN1C(=O)N(c2c(F)c(OC)cc(OC)c2F)Cc2cnc3[nH]c(CN4CCOCC4)cc3c21 [pemigatinib], the cell viability was determined as 0.847.

The values are drawn from the supplement of paper PMC9588766.
